According to paper PMC4336329 (PLoS ONE, 2015):
The whole screen tested about 310,000 compounds, of which about 14,000 (4.5%) showed an effect of 50% or more. The effect is printed as a negative number. The list shows a part of the results.

The molecules below were run against human ether-à-go-go-related gene (hERG) potassium channel (human, UniProt Q12809) (assay: primary screen, population patch clamp on CHO cells stably expressing hERG).
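Further: peak tail current of the secondary pulse compared with the same well before compound.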

Sequence of human ether-à-go-go-related gene (hERG) potassium channel (Q12809 whole entry, looked up): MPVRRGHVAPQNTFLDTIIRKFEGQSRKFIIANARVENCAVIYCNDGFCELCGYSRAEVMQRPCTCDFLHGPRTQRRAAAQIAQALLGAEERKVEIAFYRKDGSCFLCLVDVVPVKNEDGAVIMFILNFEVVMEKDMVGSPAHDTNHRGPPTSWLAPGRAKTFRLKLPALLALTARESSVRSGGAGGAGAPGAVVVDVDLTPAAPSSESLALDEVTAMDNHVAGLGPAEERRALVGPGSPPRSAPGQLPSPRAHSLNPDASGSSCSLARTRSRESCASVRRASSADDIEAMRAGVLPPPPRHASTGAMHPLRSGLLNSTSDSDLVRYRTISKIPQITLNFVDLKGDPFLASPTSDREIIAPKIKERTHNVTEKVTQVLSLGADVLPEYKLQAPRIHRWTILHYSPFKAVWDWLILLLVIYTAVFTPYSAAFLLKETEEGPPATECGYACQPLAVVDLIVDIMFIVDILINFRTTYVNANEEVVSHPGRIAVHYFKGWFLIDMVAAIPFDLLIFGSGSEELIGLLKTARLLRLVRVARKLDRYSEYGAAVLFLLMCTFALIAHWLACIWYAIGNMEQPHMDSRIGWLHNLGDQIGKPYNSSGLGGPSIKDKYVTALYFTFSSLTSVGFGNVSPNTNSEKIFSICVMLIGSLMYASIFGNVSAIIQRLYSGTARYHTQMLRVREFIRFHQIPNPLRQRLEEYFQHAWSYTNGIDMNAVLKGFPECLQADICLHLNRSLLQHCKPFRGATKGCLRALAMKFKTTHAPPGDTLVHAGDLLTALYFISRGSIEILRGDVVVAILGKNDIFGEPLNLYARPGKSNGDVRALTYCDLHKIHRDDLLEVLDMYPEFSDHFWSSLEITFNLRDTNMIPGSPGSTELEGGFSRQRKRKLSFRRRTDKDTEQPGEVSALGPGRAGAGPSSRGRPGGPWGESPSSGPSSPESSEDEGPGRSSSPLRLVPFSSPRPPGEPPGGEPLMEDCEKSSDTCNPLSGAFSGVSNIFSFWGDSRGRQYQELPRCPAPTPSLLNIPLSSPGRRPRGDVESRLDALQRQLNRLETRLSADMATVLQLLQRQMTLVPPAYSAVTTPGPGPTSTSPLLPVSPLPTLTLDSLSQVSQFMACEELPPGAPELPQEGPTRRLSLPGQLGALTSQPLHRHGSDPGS

Question: Which “hERG current change (%, negative = inhibition) at 10uM” value does the source give for S=c1[nH]c2ccccc2n2c(=S)[nH]nc12 here?
Answer: The value was 5.26%.

Question: For Cc1nnc(NC(=O)C2CCCN(S(=O)(=O)c3ccccc3C(F)(F)F)C2)s1 (centres unmarked), which “hERG current change (%, negative = inhibition) at 10uM” value is on record?
Answer: Its value is -8.84%.

Question: CC12CCC(=O)N1C(C(=O)O)Cc1c2[nH]c2ccccc12 (centres unmarked) was tested. Which “hERG current change (%, negative = inhibition) at 10uM” value did it give?
Answer: Its value is 14.3%.

Question: How did the “hERG current change (%, negative = inhibition) at 10uM” value turn out when CCOc1ccc(-c2cc(C(=O)N3CCN(C)CC3)c3ccccc3n2)cc1 was run?
Answer: The value was -0.0962%.

Question: Which “hERG current change (%, negative = inhibition) at 10uM” value does the source give for CCC(=O)OCCNc1cc(Sc2nc3ccccc3s2)c2nonc2c1[N+](=O)[O-] here?
Answer: The value was 7.77%.

Question: Which “hERG current change (%, negative = inhibition) at 10uM” value does the source give for O=c1c2ccccc2nc(SCc2ccncc2)n1CC1CCCO1 (centres unmarked) here?
Answer: Its value is -54%.

Question: For COc1cccc(-c2cc(C(F)(F)F)c3c(N)c(C#N)sc3n2)c1, which “hERG current change (%, negative = inhibition) at 10uM” value is on record?
Answer: The value was 6.42%.

Question: For Cc1cnc(C(=O)OCC(=O)c2ccc[nH]2)cn1, which “hERG current change (%, negative = inhibition) at 10uM” value is on record?
Answer: Its value is 24%.

Question: With Cc1ccc(N(CC(O)CN2CCCCC2)S(=O)(=O)c2ccccc2)cc1 (centres unmarked) as the molecule, how does the “hERG current change (%, negative = inhibition) at 10uM” value read?
Answer: The value was -68%.

Question: For COc1ccc(/C=N/n2c(-c3ccccc3)n[nH]c2=S)cc1, which “hERG current change (%, negative = inhibition) at 10uM” value is on record?
Answer: The value was -2.52%.

Question: C=CCN(C(=O)CN1CCOCC1)c1nc(C)c(-c2ccccc2)s1 was tested. Which “hERG current change (%, negative = inhibition) at 10uM” value did it give?
Answer: Its value is -0.582%.

Question: For C/C=C\C=C/C(=O)Nc1cccc(C2=NOC3(C2)C[C@@H](C(N)=O)N(C(=O)C2(C)CC2)C3)c1 (some centres unmarked), which “hERG current change (%, negative = inhibition) at 10uM” value is on record?
Answer: The value was 5.05%.

Question: How did the “hERG current change (%, negative = inhibition) at 10uM” value turn out when O=C(NNC(=O)c1ccccc1F)c1ccc(Cl)c(S(=O)(=O)N2CCOCC2)c1 was run?
Answer: The value was 6.04%.

Question: With Cc1cc(C)c(S(=O)(=O)/N=C2/C=C(Sc3ncn[nH]3)C(=O)c3ccccc32)cc1C as the molecule, how does the “hERG current change (%, negative = inhibition) at 10uM” value read?
Answer: The value was 18.2%.

Question: Which “hERG current change (%, negative = inhibition) at 10uM” value does the source give for Cc1ccc(-c2nnc3ccc(SCC(=O)N4CCCc5ccccc54)nn23)cc1 here?
Answer: Its value is -12.5%.

Question: With Cc1ccc(N(CC(=O)NCc2ccccc2)C(=O)CCC(=O)Nc2ccccn2)c(C)c1 as the molecule, how does the “hERG current change (%, negative = inhibition) at 10uM” value read?
Answer: Its value is -16.9%.

Question: With Cc1nc2ccc(S(=O)(=O)NCC(=O)Nc3cccc(F)c3)cc2s1 as the molecule, how does the “hERG current change (%, negative = inhibition) at 10uM” value read?
Answer: Its value is 14.5%.

Question: How did the “hERG current change (%, negative = inhibition) at 10uM” value turn out when Cn1nnnc1SCC(=O)N1CCc2ccccc2C1 was run?
Answer: The value was 0.197%.

Question: How did the “hERG current change (%, negative = inhibition) at 10uM” value turn out when COCC(=O)N1CCN(c2cccc(C(F)(F)F)c2)CC1.Cl was run?
Answer: Its value is 3.38%.

Question: For CCCCn1c(Cn2nc(C(=O)O)c3ccccc3c2=O)nc2cc(S(N)(=O)=O)ccc21, which “hERG current change (%, negative = inhibition) at 10uM” value is on record?
Answer: Its value is 4.84%.

Question: How did the “hERG current change (%, negative = inhibition) at 10uM” value turn out when O=c1c(/C=N/OCc2ccc(Cl)cc2Cl)c[nH]n1-c1cccc(Cl)n1 was run?
Answer: Its value is 18.7%.

Question: How did the “hERG current change (%, negative = inhibition) at 10uM” value turn out when CN1CCN(c2c(N)c(=O)oc3ccccc23)CC1 was run?
Answer: Its value is -45.2%.

Question: How did the “hERG current change (%, negative = inhibition) at 10uM” value turn out when CCOC(=O)c1cnn(-c2ccccc2)c1-n1cccc1C(=O)C(=O)N(CC)CC was run?
Answer: The value was -2.43%.

Question: With Cc1nc2n(n1)C(c1ccccc1)C1=C(CC(c3ccco3)CC1=O)N2 (centres unmarked) as the molecule, how does the “hERG current change (%, negative = inhibition) at 10uM” value read?
Answer: Its value is 11.4%.

Question: For COc1ccc(CNC(=O)c2ccc3ccccc3n2)cc1OC, which “hERG current change (%, negative = inhibition) at 10uM” value is on record?
Answer: Its value is 22.1%.

Question: COc1cccc(OC)c1NC(=O)C1CCCN1C(=O)Nc1cccc(Cl)c1 (centres unmarked) was tested. Which “hERG current change (%, negative = inhibition) at 10uM” value did it give?
Answer: Its value is 17.9%.

Question: With CCNC(=S)N(CCCO)Cc1cc2cc3c(cc2[nH]c1=O)OCCO3 as the molecule, how does the “hERG current change (%, negative = inhibition) at 10uM” value read?
Answer: The value was 19.1%.

Question: O/N=C\c1cccn1-c1ccc(Br)cc1 was tested. Which “hERG current change (%, negative = inhibition) at 10uM” value did it give?
Answer: The value was -0.768%.

Question: Which “hERG current change (%, negative = inhibition) at 10uM” value does the source give for CC(C)CCN1CCN(Cc2ccc(N3CCNC3=O)cc2)CC1CCO (centres unmarked) here?
Answer: The value was -20.1%.

Question: Cc1ccc2c(C(=O)CN3CCCCC3CCO)c(C)[nH]c2c1 (centres unmarked) was tested. Which “hERG current change (%, negative = inhibition) at 10uM” value did it give?
Answer: The value was -25.9%.

Question: For O=[N+]([O-])c1ccc(N=Cc2c(O)ccc3ccccc23)cc1, which “hERG current change (%, negative = inhibition) at 10uM” value is on record?
Answer: Its value is 5.58%.

Question: For N#Cc1c(-c2ccccc2)c(C#N)c2nc3ccccc3n2c1N, which “hERG current change (%, negative = inhibition) at 10uM” value is on record?
Answer: The value was 8.92%.

Question: For Cc1cccc(NC(=O)[C@H](Cc2ccccc2)NC(=O)[C@@H]2Cc3ccccc3CN2)c1, which “hERG current change (%, negative = inhibition) at 10uM” value is on record?
Answer: Its value is -0.0161%.

Question: Cc1cc([N+](=O)[O-])c(C)cc1-c1ccc(/C=N/NC(=O)c2cccnc2)o1 was tested. Which “hERG current change (%, negative = inhibition) at 10uM” value did it give?
Answer: The value was -0.453%.

Question: For Cc1ccc(CNC(=O)c2ccccc2NS(=O)(=O)c2ccc(Cl)nc2)cc1, which “hERG current change (%, negative = inhibition) at 10uM” value is on record?
Answer: The value was 12.6%.

Question: For CSCCC(=O)N1CC[C@@H](N2CCN(c3ccccc3F)CC2)[C@H](O)C1, which “hERG current change (%, negative = inhibition) at 10uM” value is on record?
Answer: The value was -6.63%.

Question: Which “hERG current change (%, negative = inhibition) at 10uM” value does the source give for CCCCn1c(N)c(N(CCOC)C(=O)c2ccc(N3C(=O)CCC3=O)cc2)c(=O)[nH]c1=O here?
Answer: The value was 8.25%.

Question: O=C(NC(=S)NCC1COc2ccccc2O1)c1ccccc1 (centres unmarked) was tested. Which “hERG current change (%, negative = inhibition) at 10uM” value did it give?
Answer: Its value is -19.5%.

Question: Cn1c(-c2ccccc2F)cc2onc(-c3ccccc3)c2c1=O was tested. Which “hERG current change (%, negative = inhibition) at 10uM” value did it give?
Answer: Its value is -2.91%.

Question: COc1ccc(-c2noc(-c3ccccc3C(=O)N3CCOCC3)n2)cc1 was tested. Which “hERG current change (%, negative = inhibition) at 10uM” value did it give?
Answer: The value was -14%.

Question: COC(=O)CCCC(=O)N1CCC(CCC(=O)NCc2ccc(F)cc2)CC1 was tested. Which “hERG current change (%, negative = inhibition) at 10uM” value did it give?
Answer: Its value is -24%.

Question: With Cc1ccc(C(=O)N2C(=O)c3cccc(N)c3C2=O)o1 as the molecule, how does the “hERG current change (%, negative = inhibition) at 10uM” value read?
Answer: Its value is 15.4%.

Question: How did the “hERG current change (%, negative = inhibition) at 10uM” value turn out when COCCn1c(SCC(=O)NCc2ccc(OC)c(OC)c2)nc2ccccc21 was run?
Answer: The value was 16.2%.

Question: Which “hERG current change (%, negative = inhibition) at 10uM” value does the source give for COc1ccc(N2CCN(Cc3nc4ccccc4[nH]3)CC2)cc1 here?
Answer: The value was 1.56%.
